# Data: PubChem BioAssay AID1347165 (National Center for Advancing Translational Sciences (NCATS), 2019)
# Among all 220,000 compounds or so, about 5,700 (2.6%) were called active. Inconclusive means that the source gave no clear call. Such entries were picked first, then a sample of the others. Calls come from the whole dose curve; as a rule, active = well fitted inhibition curve with a large enough effect; inconclusive = small, poorly fitted or top-dose-only effect; inactive = no such curve, though single readings can be large or run the other way. Potencies of inconclusive entries are doubtful fits and often do not repeat.
# Target: Lysine-specific demethylase 5B (Homo sapiens) (UniProt Q9UGL1)
# UniProt Q9UGL1, sequence (Q9UGL1 whole entry, looked up): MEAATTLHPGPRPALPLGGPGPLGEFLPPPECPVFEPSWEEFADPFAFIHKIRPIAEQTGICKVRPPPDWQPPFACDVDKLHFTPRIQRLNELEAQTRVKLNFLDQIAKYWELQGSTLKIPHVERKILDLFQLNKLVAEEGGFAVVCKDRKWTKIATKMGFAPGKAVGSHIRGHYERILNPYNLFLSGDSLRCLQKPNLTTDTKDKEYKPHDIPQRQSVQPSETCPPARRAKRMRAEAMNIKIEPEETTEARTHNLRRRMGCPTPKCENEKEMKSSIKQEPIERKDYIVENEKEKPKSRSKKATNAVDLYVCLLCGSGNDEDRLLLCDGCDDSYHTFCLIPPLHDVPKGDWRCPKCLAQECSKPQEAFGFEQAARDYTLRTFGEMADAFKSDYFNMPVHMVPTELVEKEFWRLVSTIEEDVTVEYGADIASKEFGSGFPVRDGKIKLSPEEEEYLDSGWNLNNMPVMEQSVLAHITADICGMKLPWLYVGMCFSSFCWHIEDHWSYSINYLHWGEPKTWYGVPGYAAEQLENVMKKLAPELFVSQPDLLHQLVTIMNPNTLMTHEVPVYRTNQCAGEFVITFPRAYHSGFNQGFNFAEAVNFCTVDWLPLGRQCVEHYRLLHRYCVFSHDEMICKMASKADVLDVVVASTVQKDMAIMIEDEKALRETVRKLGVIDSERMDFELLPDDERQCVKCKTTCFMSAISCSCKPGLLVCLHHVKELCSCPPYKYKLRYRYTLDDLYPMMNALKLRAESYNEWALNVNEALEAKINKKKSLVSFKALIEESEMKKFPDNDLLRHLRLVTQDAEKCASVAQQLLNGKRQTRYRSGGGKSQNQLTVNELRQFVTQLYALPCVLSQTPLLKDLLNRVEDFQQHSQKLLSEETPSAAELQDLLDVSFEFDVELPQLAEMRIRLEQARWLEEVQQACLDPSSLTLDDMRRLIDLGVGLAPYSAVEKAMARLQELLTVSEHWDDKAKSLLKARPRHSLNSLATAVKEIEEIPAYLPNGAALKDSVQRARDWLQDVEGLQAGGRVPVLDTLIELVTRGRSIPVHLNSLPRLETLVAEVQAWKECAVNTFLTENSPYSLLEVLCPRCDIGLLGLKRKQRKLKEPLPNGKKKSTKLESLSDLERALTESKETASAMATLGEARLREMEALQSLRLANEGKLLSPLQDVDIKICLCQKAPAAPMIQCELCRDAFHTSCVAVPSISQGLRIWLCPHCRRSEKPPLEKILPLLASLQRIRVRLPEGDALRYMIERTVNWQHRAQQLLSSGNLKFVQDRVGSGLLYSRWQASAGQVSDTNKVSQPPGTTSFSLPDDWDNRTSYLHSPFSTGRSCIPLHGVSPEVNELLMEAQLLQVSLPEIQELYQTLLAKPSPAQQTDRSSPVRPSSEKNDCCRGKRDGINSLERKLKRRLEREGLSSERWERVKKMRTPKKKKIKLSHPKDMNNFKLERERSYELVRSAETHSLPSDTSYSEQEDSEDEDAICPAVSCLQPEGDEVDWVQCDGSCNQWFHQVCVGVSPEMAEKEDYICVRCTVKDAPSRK
# Assay: Primary screen for KDM5B Histone Demethylases FDH-coupled qHTS; note: nearly all actives have a fitted effect of over 70% in size; for activity change, negative = inhibition: 0% is about no effect
# Conditions: FDH-coupled NADH fluorescence (FDH is formaldehyde dehydrogenase); activity change, negative = inhibition: at 57.7 µM (top of the series) unless noted
# How it was run: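 qHTS format, multiple compound concentrations. Buffer 50 mM HEPES pH 7.5/0.01% Tween-20; 200 nM KDM5BΔAP final; 10 min compound preincubation; substrate-mix levels 12.5 µM peptide, 25 µM α-KG, 0.25 mM NAD⁺; 30 min RT; ΔRFU.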
# Potency is the fitted concentration of half-maximal effect; tags give direction and shape of the fitted curve.
Compound,"activity change, negative = inhibition",Potency
O=C(CSc1ccc2c(c1)OCCCO2)NC(c1ccccc1)c1ccccc1,inactive: 12.9%,–
O=C(c1cn(-c2ccccc2)nn1)N1CCOC(c2ccc(F)cc2)C1 (stereo not given),–,"inconclusive: 28.2 µM [inhibitor, partial curve, poor fit]"
Cc1ccc(NC(=O)c2cc3n(n2)CC(c2ccc4c(c2)OCO4)OC3)c(Cl)c1 (stereo not given),–,"inconclusive: 12.6 µM [inhibitor, partial curve, poor fit]"
COc1ccc(OC2CCN(C(C)=O)CC2)c(C(=O)NC(C)Cc2cccs2)c1 (stereo not given),–,active: 28.2 µM
COc1cccc(Cl)c1-c1nccc2c(=O)cc(N(C)C)oc12,inactive: -1740% [at 86.2 µM],–
CN(C)Cc1ccc(-c2cc3c(ccn3Cc3ccncc3)c(N3CCOCC3)n2)cc1,–,active: 39.8 µM
NCC(=O)N1Cc2ccccc2CC2(CCN(CC3CCNC3)C2)C1 (stereo not given),–,"inconclusive: 100 µM [inhibitor, partial curve, poor fit]"
O=Cc1cc(Cl)ccc1O,inactive: 16.4%,–
CCOC(=O)COc1ccc2c(C)c(Cc3ccccc3)c(=O)oc2c1C,–,"inconclusive: 1.78 µM [inhibitor, full curve, poor fit]"
CCc1cccc(NC(=O)C2CCCN2S(=O)(=O)c2ccc3c(c2)n(C)c(=O)c(=O)n3C)c1 (stereo not given),–,"inconclusive: 31.6 µM [inhibitor, single point]"
O=C(Nc1ccc(Cl)cc1Cl)N1CCc2[nH]c3ccc(F)cc3c2C1,–,active: 31.6 µM
COc1cc(F)ccc1-c1cc(C(=O)NCc2cccnc2)c2c(c1)N(C)CCO2,–,active: 28.2 µM
CCCNC(=O)C1COC2(CCN(C(=O)c3ccccc3C)CC2)N1C(=O)c1cccc(F)c1 (stereo not given),inactive: 8.68%,–
N#CC(Cc1ccccc1CO)c1nc2ccccc2s1 (stereo not given),–,"inconclusive: 39.8 µM [inhibitor, single point]"
COc1ccc(-c2ccc3c(N)c(C(=O)Nc4ccc(C)cc4C)sc3n2)cc1OC,–,"inconclusive: 35.5 µM [inhibitor, partial curve, poor fit]"
CC(=O)N1CCC2(CC1)CN(C(=O)CCC(=O)O)Cc1ccccc1O2,inactive: 10.3% [at 149 µM],–
COc1cccc(CN2CCN(Cc3cc(OC)c(OC)cc3OC)CC2)c1,–,"inconclusive: 10 µM [inhibitor, partial curve, poor fit]"
O=C(NCCc1ccc2c(c1)OCCO2)c1ccc(NC(=O)c2cccs2)cc1,–,"inconclusive: 39.8 µM [inhibitor, single point]"
CCNC(=O)NCCc1ncc(C)n1CC1CC1,inactive: 8.64%,–
Cc1nn(C)c2c1c(-c1ccccc1)cc(=O)n2C(C)C(=O)NCCc1ccc(Cl)cc1 (stereo not given),–,"inconclusive: 35.5 µM [inhibitor, partial curve, poor fit]"
O=C(Cn1c(-c2ccccc2)cc2ccccc21)NCCC(=O)N1CCCC1,–,"inconclusive: 31.6 µM [inhibitor, partial curve, poor fit]"
Cn1cc(-c2ccccc2F)c2nc(COc3ccc(C(=O)O)cc3)cn2c1=O,–,"inconclusive: 28.2 µM [inhibitor, partial curve, poor fit]"

Compound,"activity change, negative = inhibition",Potency
COc1ccc(NS(=O)(=O)c2ccc(-c3cnc(C4CC4)o3)cc2)cc1,inactive: 21.4%,–
COc1ccc(-c2nc(CSCC(=O)NC(C)c3ccccc3)c(C)o2)cc1OC (stereo not given),–,"inconclusive: 35.5 µM [inhibitor, partial curve, poor fit]"
CCN(CC)CCNC(=O)c1ccc2c(c1)NC(=O)C(CS(=O)(=O)Cc1ccc(F)cc1Cl)N2 (stereo not given),–,"inconclusive: 17.8 µM [inhibitor, partial curve, poor fit]"
Cc1ccc(Cl)cc1-n1ncc2c(Nc3cccc4c3CCCC4)ncnc21,–,"inconclusive: 22.4 µM [inhibitor, single point]"
O=C(NCc1cccs1)c1nc(-c2ccc(F)cc2)c2ccccn12,–,active: 28.2 µM
COCCN1C(=O)c2ccccc2NC1c1cc(OC)cc(OC)c1 (stereo not given),–,"inconclusive: 25.1 µM [inhibitor, partial curve, poor fit]"
CCCc1noc(-c2ccn3c(CNC(=O)c4ccc(OC)cc4)nnc3c2)n1,–,"inconclusive: 20 µM [inhibitor, partial curve, poor fit]"
O=C(Cc1ccc(F)cc1)N1CCC(N2CC3CC(C2)[C@H]2CCCC(=O)N2C3)CC1 (stereo not given in full),–,"inconclusive: 25.1 µM [inhibitor, partial curve, poor fit]"
Cc1ccc(/C=C/C(=O)c2cc3ccccc3oc2=O)cc1,–,"inconclusive: 31.6 µM [inhibitor, partial curve, poor fit]"
N#C/C(C(N)=O)=C1/SC=C(c2ccccc2)N1c1ccccc1,–,"inconclusive: 31.6 µM [inhibitor, single point]"
CCOC(=O)c1ccc(Nc2nc(N)c3cc(OC)c(OC)cc3n2)cc1,–,"inconclusive: 35.5 µM [inhibitor, partial curve, poor fit]"
CCc1cccc(CC)c1NC(=O)COC(=O)c1cc(=O)c2ccccc2o1,inactive: 14.9%,–
CC(=O)N1CCN(c2ccccc2NC(=O)c2ccc(-c3ccccc3)cc2)CC1,–,"inconclusive: 39.8 µM [inhibitor, single point]"
NC1=CC(=O)CC1,inactive: 25.2%,–
Cc1ccc(CNC(=O)c2ccc(N3CCOCC3)c(NC(=O)Nc3cc(F)ccc3F)c2)cc1,–,"inconclusive: 39.8 µM [inhibitor, single point]"
Cc1oc(-c2nc(C#N)c(NCCN(C)C)o2)cc1S(=O)(=O)N(C)c1ccccc1,–,"inconclusive: 12.6 µM [inhibitor, partial curve, poor fit]"
CCc1ccc(N2CC(c3noc(-c4cc(Cl)ccc4F)n3)CC2=O)cc1 (stereo not given),–,"inconclusive: 39.8 µM [inhibitor, single point]"
CN(C)c1ccc(-c2nnnn2[C@H]2CO[C@H]3[C@@H]2OC[C@H]3OC(=O)Nc2ccc(Oc3ccccc3)cc2)cc1,–,active: 12.6 µM
COc1ccc(NC(=O)C2=NO[C@@H]3CN(c4cccnc4)C[C@H]23)cc1,–,"inconclusive: 39.8 µM [inhibitor, single point]"
COc1ccc(CC(=O)Nc2ccc(-c3nc4ccccc4s3)cc2Cl)cc1OC,–,"inconclusive: 31.6 µM [inhibitor, partial curve, poor fit]"
COc1ccc(Nc2cc(C(=O)NCCCN(C)c3ccccc3)c3ccccc3n2)c(OC)c1,–,"inconclusive: 14.1 µM [inhibitor, partial curve, poor fit]"
O=C(O)C/C(=C/c1ccc(Br)s1)c1nc2ccccc2o1,inactive: -13.2%,–

Compound,"activity change, negative = inhibition",Potency
Cn1nccc1C(O)c1cc2n(n1)CCN(c1ncc(Cl)cn1)C2 (stereo not given),–,"inconclusive: 20 µM [inhibitor, partial curve]"
O=Cc1ccc(N2CCN(C(=O)c3ccc4c(c3)OCO4)CC2=O)cc1,–,"inconclusive: 50.1 µM [inhibitor, partial curve]"
Cc1ccc(C)c(NC(=O)[C@H]2CCC[C@H]2NC(=O)c2ccncc2)c1,inactive: 11.2%,–
CCC1CCCCN1S(=O)(=O)c1ccc(NC(=O)c2nc(SC)ncc2Cl)cc1 (stereo not given),–,"inconclusive: 22.4 µM [inhibitor, single point]"
COc1ncccc1-c1ncc2c(n1)OCCN(c1cccc(C(F)(F)F)c1)C2=O,inactive: -9.33% [at 86.2 µM],–
Cc1ccc2c(C(=O)O)cc(NC(=O)C(C)C)cc2n1,–,active: 20 µM
COc1ccc(CN2CCn3c(nn(-c4ccc([N+](=O)[O-])cc4)c3=O)C2)cc1,–,active: 31.6 µM
O=[S+]1([O-])NC2(CCN(Cc3cccnc3)CC2)CNc2ccccc21,inactive: 4.5%,–
COc1cc(OC)c(S(=O)(=O)Nc2ccc(C(=O)O)cc2)cc1S(=O)(=O)Nc1ccc(C(=O)O)cc1,–,"inconclusive: 31.6 µM [inhibitor, single point]"
Cc1c(Cl)cccc1-n1c(SCC(=O)NCc2ccccc2)nc2n[nH]c(C)c2c1=N,–,"inconclusive: 39.8 µM [inhibitor, single point]"
COc1cccc(NC(=O)O[C@@H]2CO[C@H]3[C@@H]2OC[C@@H]3Nc2nccc(-c3cccs3)n2)c1,–,active: 15.8 µM
Cc1ccc(Nc2cc(=O)[nH]c(=O)[nH]2)cc1C,inconclusive: -39.3% [inhibitor],–
Cc1noc([C@@H](C)NC(=O)c2cc(C)n(C)n2)c1C(=O)O,–,"inconclusive: 28.2 µM [inhibitor, partial curve, poor fit]"
COc1cccc(CNC(=O)c2cc(-c3ccncc3)cn2C)c1OC,–,"inconclusive: 35.5 µM [inhibitor, single point]"
CN1CCN(c2oc(/C=C/c3cccs3)nc2C#N)CC1,–,"inconclusive: 31.6 µM [inhibitor, partial curve, poor fit]"
Cc1ccc(-c2cc(N3CCC(CNC(=O)c4cc(C5CC5)[nH]n4)CC3)n[nH]2)cc1,–,"inconclusive: 15.8 µM [inhibitor, partial curve, poor fit]"
O=C(O)C[C@@H]1CCN(C(=O)c2ccccc2)C[C@@H]1CCN1C[C@@H]2C[C@H](C1)c1cccc(=O)n1C2,–,"inconclusive: 17.8 µM [inhibitor, partial curve, poor fit]"
COc1ccccc1NC(=O)c1cc2c(s1)-c1ccccc1S(=O)(=O)C2,–,"inconclusive: 20 µM [inhibitor, partial curve, poor fit]"
Cc1cccc(C(=O)N2CCCC(c3nn[nH]n3)C2)c1 (stereo not given),–,"inconclusive: 28.2 µM [inhibitor, partial curve, poor fit]"
Cc1ccc(NC(=O)C2CC(=O)N(c3n[nH]c4cccc(F)c34)C2)cc1C (stereo not given),–,active: 17.8 µM
CCOc1ccc(NC(=O)CN(c2ccccc2OCC)S(=O)(=O)c2ccccc2)cc1,inactive: -4.74%,–
